From PubChem BioAssay (NCATS)
Inconclusive means that the source gave no clear call. Such entries were picked first, then a sample of the others. For part of these data: No potency is given beside an inconclusive call; the fits are too rough. For part of these data: “Side channel” marks fits to a control or component signal instead of the main read-out. Activity calls are given as the source filed them. Unless noted, calls come from the whole dose curve; as a rule, active = well fitted curve in the direction sought with a large enough effect; inconclusive = small, poorly fitted or top-dose-only effect, or another doubt; inactive = no such curve, though single readings can be large; an effect the other way counts as inactive or inconclusive.

Tests used:
[1] = NFAT Signaling Pathway (AID 444; active = well fitted curve in either direction with a large enough effect, not every such curve was filed as active; inconclusive = small, poorly fitted or top-dose-only effect, or another doubt;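 note: carbachol stimulus at about its EC50 of 1 µM final; % is set by controls: 0 for no effect and ±100 for the full control effect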); conditions: Jurkat NFAT-bla M1, carbachol, beta-lactamase ratio, 5 h; at 38 µM (top of the series)
Method in brief: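 Jurkat cells with NFAT-driven β-lactamase reporter and co-expressed M1 receptor, stimulated with carbachol (final 1 uM, ~EC50), compound titration, 5 h at 37 °C. CCF4 loaded 1 h at RT; 460/530 nm ratio gave %activity and AC50.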

[2] = Stat Signaling Pathway (AID 446; active = well fitted curve in either direction with a large enough effect, not every such curve was filed as active; inconclusive = small, poorly fitted or top-dose-only effect, or another doubt;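 note: ME-180 cervical cancer cells given 40 pM IL-6 alongside compound; SIE-controlled beta-lactamase reporter measured as 460/530 nm FRET emission ratio; top concentration of the series differs between compounds; % is set by controls: 0 for no effect and ±100 for the full control effect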); conditions: ME-180 SIE beta-lactamase reporter, IL-6 stimulated, 5 h; at 38 µM (top of the series)
Method in brief: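 Compound effects on IL-6-induced STAT reporter activity were measured in ME-180 cells. After overnight culture, cells were co-treated with 40 pM IL-6 for 5 hrs before beta-lactamase substrate loading at room temperature.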

[3] = target: Cytochrome P450 3A4 (Homo sapiens) (UniProt P08684); experiment: qHTS Assay for Activators of Cytochrome P450 3A4 (AID 885); note: potency is the fitted concentration of half-maximal effect; nearly all actives have a fitted effect of over 65% in size
Method in brief: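 CYP3A4 activity: Luciferin-PPXE O-dealkylation, 25uM substrate, 200mM KPO4, RT throughout. Read-out is luciferase luminescence; higher values reflect activation.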

[4] = qHTS Assay for Identification of Small Molecule Agonists for Hypoxia Response Element Signaling Pathway (AID 914; active = well fitted activation curve with a large enough effect in the signal ratio, with a control signal flat, not every such curve was filed as active; inconclusive = small, poorly fitted or top-dose-only effect, or effect the other way, or a change in a side signal; the % refers to the signal ratio; note: potency is the fitted concentration of half-maximal effect); conditions: ME-180 (cervical carcinoma) HRE-bla reporter, beta-lactamase ratio, CoCl2, 17 h; activation: hits give high values
Method in brief: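 Positive modulation of EC50 CoCl2-induced hypoxia response element signaling is measured in ME-180 cells with a beta-lactamase reporter. Compounds are titrated, incubation runs 17 hours, and %Activity derives from the blue/green ratio.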

[5] = qHTS Assay for Identification of Small Molecule Agonists for Thrombopoietin (TPO) Signaling Pathway (AID 917); note: % is set by controls: 0 for no effect and ±100 for the full control effect
Method in brief: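 First, Ba/F3 cells with human TPO receptor were held overnight without IL-3. Next, compounds and TPO (26 pM final) were added. After 24 hrs at 37 C, luciferase detection reagent was added and luminescence measured following 10 min at room temperature.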

[6] = qHTS Assay for Identification of Small Molecule Antagonists for Thrombopoietin (TPO) Signaling Pathway (AID 918); conditions: TPO-dependent cell signaling reporter, antagonist mode; activity change, negative = inhibition: at 38.5 µM (top of the series); note: nearly all actives have a fitted effect of over 60% in size
Method in brief: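 Luminescence read-out: GPIIb-promoter luciferase in Ba/F3 cells carrying human TPO receptor. Compounds added with 26 pM TPO (EC50), 24 hrs, 37 C, 5% CO2; cells deprived of IL-3 overnight beforehand. Inhibition of signal scored.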

[7] = qHTS for differential inhibitors of proliferation of Plasmodium falciparum line 7G8 (AID 1815);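 note: parasite growth measured after three days of incubation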; note: potency is the fitted concentration of half-maximal effect;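 for activity change, negative = inhibition: plate controls were vehicle wells for no effect and reference inhibitor wells for full effect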
[8] = qHTS for differential inhibitors of proliferation of Plasmodium falciparum line GB4 (AID 1816); conditions: Potency: Plasmodium falciparum GB4 proliferation inhibition;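 note: potency is the fitted concentration of half-maximal effect; parasite growth measured after 72 h incubation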
[9] = qHTS for differential inhibitors of proliferation of Plasmodium falciparum line 3D7 (AID 1876);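 note: parasite growth measured after three days of culture; 0% = vehicle wells and -100% = reference inhibitor wells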
[10] = qHTS for differential inhibitors of proliferation of Plasmodium falciparum line D10 (AID 1877);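 note: potency is the fitted concentration of half-maximal effect; parasites grown with compound for 72 h before DNA staining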
[11] = qHTS for differential inhibitors of proliferation of Plasmodium falciparum line W2 (AID 1883); conditions: Potency: Plasmodium falciparum W2 proliferation inhibition;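 note: potency is the fitted concentration of half-maximal effect; parasites grown with compound for 72 h before lysis and staining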
[12] = target: RecQ-like DNA helicase BLM (Homo sapiens) (UniProt P54132); experiment: qHTS Validation Assay for Inhibitors of Bloom's syndrome helicase (BLM) (AID 2364); note: potency is the fitted concentration of half-maximal effect;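 for activity change, negative = inhibition: plate controls were DMSO vehicle for no effect and enzyme-free control for full effect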
Method in brief: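 50 nM BLM preincubated 15 min at room temperature with compound in pH 8.0 Tris buffer containing 2.5 ug/ml poly(dI-dC); started with 200 nM TAMRA/BHQ-2 forked duplex and 2 mM ATP (final). Unwinding read as TAMRA fluorescence increase, two reads 2 h apart.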

[13] = target: ATP-dependent 6-phosphofructokinase (Trypanosoma brucei brucei) (UniProt O15648); experiment: qHTS Validation Assay to Find Inhibitors of T. brucei phosphofructokinase (AID 485368); conditions: activity change, negative = inhibition: at 57.5 µM (top of the series); note: potency is the fitted concentration of half-maximal effect
Method in brief: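 Inhibition derived from concentration-response curves of luminescence, ranked by r2, response size and curve class; the underlying reaction used 1.25 nM PFK, 0.1 mM ATP and 0.5 mM F6P, 45 min, room temperature.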

[14] = target: ATPase family AAA domain-containing protein 5 (Homo sapiens) (UniProt Q96QE3); experiment: Validation screen for small molecules that inhibit ELG1-dependent DNA repair in human embryonic kidney (HEK293T) cells expressing luciferase-tagged ELG1 (AID 493107); conditions: HEK293T ELG1-luciferase level, luminescence, 5-fluorouridine co-treatment, 16 h; activity change, negative = decrease: at 46.1 µM (top of the series);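 note: cells co-treated with the DNA-damaging agent 5-fluorouridine alongside compound; % is set by controls: 0 for no effect and ±100 for the full control effect; inhibitors lower the ELG1-luciferase luminescence signal; nearly all actives have a fitted effect of over 70% in size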
Method in brief: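 ELG1-luciferase HEK293T reporter; 5-fluorouridine + compound/DMSO, 16 hr, 37 °C, 5% CO2; ONE-Glo 30 min RT; luminescence read, qHTS format.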

[15] = target: Atrial natriuretic peptide receptor 2 (Homo sapiens) (UniProt P20594); experiment: Natriuretic polypeptide receptor (hNpr2) antagonism - Pilot subtype selectivity assay (AID 1347050; calls by dose curve; note: potency is the fitted concentration of half-maximal effect; for activity change, negative = inhibition: % is set by controls: 0 for no effect and ±100 for the full control effect)
Method in brief: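 Luminescence from a genetically encoded cGMP luciferase biosensor in hNpr2-expressing HEK293 cells is read before and 20 min after adding 1 nM hNppC. Test compounds, in interplate 1:5 titrations, are added 30-50 min ahead of the agonist.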

[16] = qHTS Assay for Modulators of Human Peripheral Myelin Protein 22 (PMP22) Expression/Activity (AID 1967; active = well fitted curve in the direction sought with a large enough effect in the signal ratio; inconclusive = small, poorly fitted or top-dose-only effect, or effect the other way, or a change in a side signal; inactive = no such curve, though single readings can be large or run the other way; the % refers to the signal ratio;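 note: 0% = untreated cells and 100% end not stated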); conditions: Cell-based PMP22 reporter, dual-color luciferase ratio, mouse Pmp22 promoter in mouse Schwann cells; activity change (ratio): at 115 µM (top of the series), 0% = compound-free control cells
Method in brief: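 MSC80 mouse Schwann cells stably carrying Pmp22 promoter–green click beetle luciferase plus EF-alpha–red luciferase control were dosed for 24h at 37 °C. Dual-colour luminescence was filter-overlap corrected; %Activity came from green/red ratio versus untreated cells.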

[17] = target: Chromobox protein homolog 1 (Homo sapiens) (UniProt P83916); experiment: qHTS Validation Assay for Inhibitors of HP1-beta Chromodomain Interactions with Methylated Histone Tails (AID 488953); note: nearly all actives have a fitted effect of over 50% in size; note: potency is the fitted concentration of half-maximal effect
Method in brief: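 AlphaScreen proximity readout: streptavidin donor and Ni-chelate acceptor beads, 10 ug/mL final, 30 min dark, RT. Complex of 50 nM HP1-beta and 50 nM b-H3(1-18)K9me3 formed 30 min, then compound-treated 30 min; PBS pH 7.4/0.01% Tween-20.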

[18] = qHTS for Inhibitors of ATXN expression: Validation of Cytotoxic Assay (AID 588349); note: potency is the fitted concentration of half-maximal effect
Method in brief: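 Cytotoxicity counter-screen: HEK293 cells exposed to compound titrations, 72 hr, 37 degrees C. Read-out is intracellular ATP (CellTiter Glo luminescence) as a viability measure.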

[19] = HTS Assay for Allosteric Antagonists of the Human D2 Dopamine Receptor: Hit Validation in HTRF (AID 624455); conditions: Cells stably expressing D1 dopamine receptor, inhibition mode; note: potency is the fitted concentration of half-maximal effect
Method in brief: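 HTRF read-out; cells stably expressing D1 receptor; hits scored for inhibition of D1-mediated response. Primary screen: calcium flux, force-coupled inducible Hek293 Trex D2 line, antagonism vs EC80 dopamine.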

[20] = system: Zika virus NS2B-NS3 protease (unlinked); experiment: Optimization of GU AMC qHTS for Zika virus inhibitors: Unlinked NS2B-NS3 protease assay (AID 1347151);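 note: 0% = no-inhibitor control and -100% = no-enzyme control; nearly all actives have a fitted effect of over 80% in size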
Method in brief: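 Noncovalent complex of NS2B hydrophilic domain and NS3 protease domain, 25 nM final, in 10 mM Tris-HCl pH 8.0, 0.01% Tween 20. AMC fluorescence change over 15 min at room temperature was fitted to a 4-parameter Hill equation.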

[21] = target: Atrial natriuretic peptide receptor 1 (Homo sapiens) (UniProt P16066); experiment: Natriuretic polypeptide receptor (hNpr1) antagonism - Pilot CMLD screen (AID 1347052; calls by dose curve;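 note: cGMP level read as GloSensor luciferase luminescence after agonist stimulation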; note: potency is the fitted concentration of half-maximal effect)
[22] = Cytometric Cell-Based qHTS for Inhibitors of the mTORC1 Signaling Pathway in MEF (Tsc2-/-, p53-/-) Cells (AID 2660); note: potency is the fitted concentration of half-maximal effect
Method in brief: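 Readout: Alexa-488 phospho-rpS6 (Ser235/236) intensity divided by PI intensity, thresholded against 7.5 nM rapamycin wells and reported as % positive cells. PI cell count served as the viability measure. Compound exposure was 24 hrs at 37 degree Celsius.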

[23] = High Content Imaging Cell-Based qHTS for Inhibitors of the mTORC1 Signaling Pathway in MEF (Tsc2-/-, p53-/-) Cells (AID 2666);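 note: percent of cells scored positive for phospho-rpS6 Ser235/236 immunostaining by imaging; potency is the fitted concentration of half-maximal effect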
Method in brief: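 MEF Tsc2-/- p53-/- (empty vector), DMEM/10% FBS; cpd 24 h 37 °C; PFA fix, Alexa-488 p-rpS6 S235/236 Ab, Hoechst; imaged; rapamycin-defined inhibition; % positive cells/well.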

[24] = High Content Imaging Cell-Based qHTS for Inhibitors of the mTORC1 Signaling Pathway in MEF Cells (AID 2667); note: potency is the fitted concentration of half-maximal effect
Method in brief: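 Read-out is the share of phospho-rpS6-positive cells per well, from Hoechst-normalized Alexa-488 Ser235/236 staining imaged on IN Cell. Cells: WT Tsc2-expressing Tsc2-/-, p53-/- MEFs exposed to compound for 24 hrs.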

[25] = Cytometry Cell-Based qHTS for Inhibitors of the mTORC1 Signaling Pathway in MEF cells (AID 2668); note: potency is the fitted concentration of half-maximal effect
Method in brief: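 WT MEFs (Tsc2-/-, p53-/- stably re-expressing WT Tsc2) in DMEM + 10% FBS received compounds 24 hrs after plating, for 24 hrs at 37 degree Celsius. Fixed cells stained with Alexa-488 anti-phospho-rpS6 Ser235/236 and propidium iodide; laser-scanning cytometry read-out.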

[26] = target: D(1A) dopamine receptor (Homo sapiens) (UniProt P21728); experiment: HTS Assay for Allosteric Agonists of the Human D1 Dopamine Receptor: Primary Screen for Agonists (AID 488981); note: potency is the fitted concentration of half-maximal effect
Method in brief: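 Tetracycline-induced HEK293 Trex D1 cells with forced coupling to calcium, loaded with no-wash calcium dye; kinetic fluorescence read 180 s after compound addition for agonism, then a further 180 s after an EC20 dopamine challenge for potentiation.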

[27] = qHTS for Inhibitors of ATXN expression: Validation (AID 588378); note: potency is the fitted concentration of half-maximal effect; nearly all actives have a fitted effect of over 75% in size
Method in brief: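 Luminescence from an ATXN2-FFLuc reporter in HEK293 cells served as read-out after 24 h compound treatment at 37 degrees C; CellTiter-Fluor fluorescence was recorded first to assess viability.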

[28] = target: Tyrosine-protein phosphatase non-receptor type substrate 1 (Homo sapiens) + Leukocyte surface antigen CD47 (Homo sapiens) (UniProt P78324+Q08722); experiment: CD47-SIRPalpha protein protein interaction - HTRF assay qHTS validation (AID 1347058; active = well fitted curve in the direction sought with a large enough effect in the signal ratio, not every such curve was filed as active; inconclusive = small, poorly fitted or top-dose-only effect, or effect the other way, or a change in a side signal; inactive = no such curve, though single readings can be large or run the other way; the % refers to the signal ratio; note: potency is the fitted concentration of half-maximal effect)
Method in brief: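 Soluble extracellular domains (6His-CD47, Avi-tag-biotinylated SIRPalpha) in PBS pH 7.4 with 0.05% IGEPAL CA-630. Compounds were preincubated 30 min at RT with CD47 and anti-His-Eu, then SIRPalpha and SAV-XL665 were added. TR-FRET 665/615 ratio.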

[29] = target: N-terminal Xaa-Pro-Lys N-methyltransferase 1 (Homo sapiens) (UniProt Q9BV86); experiment: qHTS Assay for Inhibitors of N-terminal methyltransferase 1 (NTMT1): LOPAC validation of the NTMT1 SAHH-coupled ThioGlo3 Assay (AID 1347143);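 note: SAH from peptide methylation measured as thiol fluorescence via SAHH coupling and ThioGlo3; potency is the fitted concentration of half-maximal effect; nearly all actives have a fitted effect of over 70% in size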
Method in brief: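 Steps: dispense 125nM NTMT1; pin-transfer test compounds at several concentrations, with 1uM RCC1-6 peptide as control; incubate 1 min; start with reagent holding 100uM SAM, 10uM SAHH, 15uM ThioGlo3; read at 0 and 30 min.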

[30] = target: Metallo-beta-lactamase type 2 (Klebsiella pneumoniae) (UniProt C7C422); experiment: qHTS to identify inhibitors of the New Delhi Metallo-beta-lactamase (NDM): assay validation screen against the NCATS LOPAC Collection (AID 1794843); note: potency is the fitted concentration of half-maximal effect
Method in brief: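 NDM-1 at 2 nM final in 50 mM HEPES pH 7.0 with 1 uM ZnSO4 and 0.01% Tween20 was preincubated with library compounds in DMSO. Nitrocefin (50 uM stock) was then added, and absorbance at 485 nm was read at the kinetic plateau.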
Tags give direction and shape of the fitted curve or compound fluorescence and quenching.

UniProt O15648, sequence (O15648 whole entry, looked up): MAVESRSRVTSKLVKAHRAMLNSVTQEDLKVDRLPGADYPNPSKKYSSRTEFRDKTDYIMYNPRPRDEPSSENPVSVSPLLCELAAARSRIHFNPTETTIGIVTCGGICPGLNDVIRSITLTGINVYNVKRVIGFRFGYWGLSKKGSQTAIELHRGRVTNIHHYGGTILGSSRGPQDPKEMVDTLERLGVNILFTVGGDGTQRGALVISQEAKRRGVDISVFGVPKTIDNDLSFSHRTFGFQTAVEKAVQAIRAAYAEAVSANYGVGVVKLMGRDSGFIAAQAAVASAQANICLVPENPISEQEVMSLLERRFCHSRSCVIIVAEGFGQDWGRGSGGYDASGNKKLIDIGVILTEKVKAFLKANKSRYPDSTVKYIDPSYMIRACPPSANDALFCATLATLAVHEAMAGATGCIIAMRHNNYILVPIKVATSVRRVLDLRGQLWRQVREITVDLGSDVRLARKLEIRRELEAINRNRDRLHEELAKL
UniProt P20594, sequence (P20594 whole entry, looked up): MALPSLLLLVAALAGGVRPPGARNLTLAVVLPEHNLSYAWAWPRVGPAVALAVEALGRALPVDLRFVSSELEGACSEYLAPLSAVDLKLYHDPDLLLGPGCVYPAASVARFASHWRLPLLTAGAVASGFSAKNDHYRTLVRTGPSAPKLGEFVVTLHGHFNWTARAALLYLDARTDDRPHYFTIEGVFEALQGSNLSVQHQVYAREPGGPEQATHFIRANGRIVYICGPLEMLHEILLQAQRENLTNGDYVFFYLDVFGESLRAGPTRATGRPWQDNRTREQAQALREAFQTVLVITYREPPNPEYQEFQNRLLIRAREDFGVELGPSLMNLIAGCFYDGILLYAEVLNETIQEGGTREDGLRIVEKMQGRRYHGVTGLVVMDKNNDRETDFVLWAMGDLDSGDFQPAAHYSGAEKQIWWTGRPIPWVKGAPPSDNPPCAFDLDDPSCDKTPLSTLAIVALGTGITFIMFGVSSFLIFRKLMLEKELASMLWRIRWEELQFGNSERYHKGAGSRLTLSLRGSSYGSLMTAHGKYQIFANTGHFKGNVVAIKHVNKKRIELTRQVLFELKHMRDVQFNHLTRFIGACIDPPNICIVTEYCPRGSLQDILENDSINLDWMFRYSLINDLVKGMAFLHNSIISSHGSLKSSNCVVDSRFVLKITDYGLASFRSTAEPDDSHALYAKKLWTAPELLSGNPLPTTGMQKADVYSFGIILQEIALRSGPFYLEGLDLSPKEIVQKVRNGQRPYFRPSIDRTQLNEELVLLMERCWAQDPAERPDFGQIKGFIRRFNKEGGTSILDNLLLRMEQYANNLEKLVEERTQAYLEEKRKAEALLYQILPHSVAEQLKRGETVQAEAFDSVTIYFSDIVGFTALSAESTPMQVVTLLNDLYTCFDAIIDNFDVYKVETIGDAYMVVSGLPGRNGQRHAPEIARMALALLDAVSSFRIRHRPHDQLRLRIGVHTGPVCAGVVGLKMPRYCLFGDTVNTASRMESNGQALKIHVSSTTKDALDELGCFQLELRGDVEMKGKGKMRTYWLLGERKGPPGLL
UniProt P83916, sequence (P83916 whole entry, looked up): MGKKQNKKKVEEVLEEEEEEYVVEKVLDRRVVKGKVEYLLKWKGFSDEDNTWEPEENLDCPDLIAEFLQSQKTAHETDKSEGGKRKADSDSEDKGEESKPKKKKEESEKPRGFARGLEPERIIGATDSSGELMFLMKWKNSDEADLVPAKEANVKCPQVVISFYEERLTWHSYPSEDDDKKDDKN
UniProt P16066, sequence (P16066 whole entry, looked up): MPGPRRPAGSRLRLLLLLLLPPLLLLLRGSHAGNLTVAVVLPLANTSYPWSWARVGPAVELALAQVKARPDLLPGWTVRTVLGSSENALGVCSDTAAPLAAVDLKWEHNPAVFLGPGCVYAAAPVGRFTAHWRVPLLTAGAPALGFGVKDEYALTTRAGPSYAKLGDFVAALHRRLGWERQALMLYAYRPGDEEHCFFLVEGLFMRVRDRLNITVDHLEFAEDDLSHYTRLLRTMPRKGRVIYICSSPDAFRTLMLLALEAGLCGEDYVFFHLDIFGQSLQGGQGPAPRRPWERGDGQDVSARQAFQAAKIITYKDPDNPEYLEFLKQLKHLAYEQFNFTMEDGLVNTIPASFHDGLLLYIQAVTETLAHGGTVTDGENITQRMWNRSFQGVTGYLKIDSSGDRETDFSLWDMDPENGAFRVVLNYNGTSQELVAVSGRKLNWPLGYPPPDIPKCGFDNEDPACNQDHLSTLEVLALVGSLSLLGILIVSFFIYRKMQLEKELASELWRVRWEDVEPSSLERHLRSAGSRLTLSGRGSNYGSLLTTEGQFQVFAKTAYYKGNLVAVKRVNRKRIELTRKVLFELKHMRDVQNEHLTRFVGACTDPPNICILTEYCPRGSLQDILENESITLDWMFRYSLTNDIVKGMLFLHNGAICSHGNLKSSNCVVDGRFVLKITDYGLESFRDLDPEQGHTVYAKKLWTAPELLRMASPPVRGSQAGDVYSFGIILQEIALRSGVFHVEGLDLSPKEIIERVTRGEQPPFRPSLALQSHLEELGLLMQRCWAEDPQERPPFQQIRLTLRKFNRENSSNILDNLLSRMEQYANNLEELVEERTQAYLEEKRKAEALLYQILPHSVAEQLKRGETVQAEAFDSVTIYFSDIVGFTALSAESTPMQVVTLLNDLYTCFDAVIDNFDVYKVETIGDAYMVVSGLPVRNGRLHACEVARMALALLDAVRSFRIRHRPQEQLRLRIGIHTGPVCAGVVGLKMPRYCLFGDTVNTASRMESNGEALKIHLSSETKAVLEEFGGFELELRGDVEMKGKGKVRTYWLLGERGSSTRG
UniProt P54132, sequence (P54132 whole entry, looked up): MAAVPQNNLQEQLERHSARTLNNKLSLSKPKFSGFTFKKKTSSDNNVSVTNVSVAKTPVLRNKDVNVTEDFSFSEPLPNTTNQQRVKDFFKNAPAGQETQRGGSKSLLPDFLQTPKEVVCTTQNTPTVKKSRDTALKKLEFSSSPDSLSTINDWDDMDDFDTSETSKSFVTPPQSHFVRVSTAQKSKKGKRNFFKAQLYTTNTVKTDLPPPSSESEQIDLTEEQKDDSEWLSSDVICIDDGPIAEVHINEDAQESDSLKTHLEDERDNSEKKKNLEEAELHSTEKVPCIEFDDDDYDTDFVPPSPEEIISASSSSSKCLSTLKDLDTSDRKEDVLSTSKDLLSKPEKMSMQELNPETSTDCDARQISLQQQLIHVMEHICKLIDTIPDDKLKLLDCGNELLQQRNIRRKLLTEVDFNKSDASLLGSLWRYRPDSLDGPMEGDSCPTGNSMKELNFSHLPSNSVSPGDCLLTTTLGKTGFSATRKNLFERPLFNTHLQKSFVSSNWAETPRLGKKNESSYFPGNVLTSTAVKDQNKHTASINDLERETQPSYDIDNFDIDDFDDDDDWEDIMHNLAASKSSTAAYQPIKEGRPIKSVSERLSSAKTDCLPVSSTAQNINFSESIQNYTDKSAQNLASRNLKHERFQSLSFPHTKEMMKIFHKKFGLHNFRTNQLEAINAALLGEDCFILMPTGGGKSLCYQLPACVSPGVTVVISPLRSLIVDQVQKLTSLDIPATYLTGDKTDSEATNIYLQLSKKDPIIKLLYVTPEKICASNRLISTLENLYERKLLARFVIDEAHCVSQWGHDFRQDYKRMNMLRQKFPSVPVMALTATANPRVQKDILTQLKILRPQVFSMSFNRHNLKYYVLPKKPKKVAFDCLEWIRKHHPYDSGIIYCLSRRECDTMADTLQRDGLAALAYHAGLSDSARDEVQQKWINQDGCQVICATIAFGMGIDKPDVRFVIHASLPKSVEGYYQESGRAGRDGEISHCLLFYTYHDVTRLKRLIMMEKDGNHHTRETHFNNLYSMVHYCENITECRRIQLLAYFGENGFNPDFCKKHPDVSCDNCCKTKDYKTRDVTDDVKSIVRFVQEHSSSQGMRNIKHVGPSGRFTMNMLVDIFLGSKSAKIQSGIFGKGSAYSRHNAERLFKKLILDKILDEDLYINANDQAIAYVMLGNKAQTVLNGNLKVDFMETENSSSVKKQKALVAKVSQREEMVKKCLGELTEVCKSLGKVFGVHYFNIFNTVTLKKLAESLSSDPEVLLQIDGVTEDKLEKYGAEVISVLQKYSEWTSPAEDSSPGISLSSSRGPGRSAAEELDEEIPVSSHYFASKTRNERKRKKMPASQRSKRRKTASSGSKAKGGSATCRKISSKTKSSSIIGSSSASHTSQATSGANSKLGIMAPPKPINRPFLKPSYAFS
UniProt P78324, sequence (P78324 whole entry, looked up, the tested form may be a part): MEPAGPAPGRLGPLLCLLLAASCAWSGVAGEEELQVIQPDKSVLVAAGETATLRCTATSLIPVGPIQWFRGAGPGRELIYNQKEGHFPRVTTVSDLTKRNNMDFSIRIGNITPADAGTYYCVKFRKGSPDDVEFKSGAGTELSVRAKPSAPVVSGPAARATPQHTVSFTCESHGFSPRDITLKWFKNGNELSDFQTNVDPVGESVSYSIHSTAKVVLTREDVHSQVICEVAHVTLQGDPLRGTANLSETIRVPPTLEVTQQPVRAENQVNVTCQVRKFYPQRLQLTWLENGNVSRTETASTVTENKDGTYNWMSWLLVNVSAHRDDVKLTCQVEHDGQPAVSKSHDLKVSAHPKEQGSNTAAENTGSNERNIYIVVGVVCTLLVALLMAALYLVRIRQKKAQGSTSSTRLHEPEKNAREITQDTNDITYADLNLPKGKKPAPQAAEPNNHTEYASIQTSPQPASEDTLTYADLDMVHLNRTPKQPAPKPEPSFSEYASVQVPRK
UniProt P78324, sequence (Q08722 whole entry, looked up, the tested form may be a part): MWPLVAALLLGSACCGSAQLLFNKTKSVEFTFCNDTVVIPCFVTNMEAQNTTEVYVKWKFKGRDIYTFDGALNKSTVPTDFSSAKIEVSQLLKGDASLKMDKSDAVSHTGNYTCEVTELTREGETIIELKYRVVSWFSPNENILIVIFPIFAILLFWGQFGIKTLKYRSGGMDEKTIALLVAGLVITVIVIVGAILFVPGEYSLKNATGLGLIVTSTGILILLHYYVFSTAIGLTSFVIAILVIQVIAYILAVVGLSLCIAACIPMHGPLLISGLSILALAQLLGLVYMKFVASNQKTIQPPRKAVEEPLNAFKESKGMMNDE

In the case of `N=C(N)SCCc1ccc(CCSC(=N)N)cc1`, the activity change, negative = inhibition [1] was inconclusive: -38.7% [inhibitor], the activity, negative = inhibition [2] was inconclusive: -35.6% [inhibitor] and the Potency [3] was inconclusive [activator, partial curve]. For the same compound, the Potency [4] was inconclusive [activator, single point], the Potency [5] was “inactive” and the activity change, negative = inhibition [6] was inconclusive: -5.16% [phenotype inactive]. For the same compound, the Potency [7] was inconclusive [inhibitor, partial curve], the Potency [8] was inconclusive [inhibitor, partial curve, poor fit] and the Potency [9] was “inactive”. For the same compound, the Potency [10] was inconclusive [inhibitor, partial curve], the Potency [11] was active: 11.2 µM and the Potency [12] was inconclusive [inhibitor, full curve, poor fit]. For the same compound, the Potency [13] was “inactive”, the Potency [14] was “inactive” and the Potency [15] was “inactive”.

For `OCC1NCC(O)C(O)C1O` (centres undefined), the Potency [7] was “inactive”, the Potency [16] was “inactive” and the Potency [12] was “inactive”. The Potency [13] was inconclusive [activator, partial curve], the Potency [17] was “inactive” and the Potency [18] was “inactive”. For the same compound, the Potency [19] was inconclusive [inhibitor, single point], the Potency [15] was “inactive” and the Potency [20] was “inactive”.

In the case of `CC(CCC#N)[N+](=O)[O-]` (centres undefined), the Potency [21] was active: 5.31 µM.

With `COCCN1C(=O)N[C@@H](CCc2ccccc2)[C@@H](C(=O)OC)[C@H]1C` the Potency [21] was “inactive”.

For `CNCCc1cnc(CCC(c2ccccc2)c2ccccc2)[nH]1`, the Potency [22] was inconclusive [falling, single point], the Potency [23] was inconclusive [falling, single point] and the Potency [24] was inconclusive [falling, single point]. The Potency [25] was active: 11.7 µM, the Potency [13] was inconclusive [activator, single point] and the Potency [17] was inconclusive [inhibitor, partial curve]. The Potency [26] was inconclusive [activator, partial curve], the Potency [18] was inconclusive [cytotoxic, partial curve] and the Potency [27] was inconclusive [inhibitor, partial curve]. For the same compound, the Potency [15] was inconclusive [inhibitor, single point], the Potency [28] was inconclusive [side channel, falling, single point] and the Potency [29] was inconclusive [inhibitor, partial curve]. For the same compound, the Potency [30] was inconclusive [inhibitor, partial curve].
